The structures appear in SMILES notation. About 1,700 (3.3%) of roughly 52,000 compounds were called active. Rule as the data show it: active = survival mostly below about 52% (no sharp cut-off); inactive = mostly above about 56%. This is one part of the list.

The subject of the assay is Wild type. In words: S. aureus survival, RN4220 and DeltatarO strains – OD600, teichoic acid synthesis inhibitors, primary screen (AID 463173). The following applies: S. aureus RN4220 wild type/DeltatarO growth, OD600, 18 h, stronger effect = lower value, screened at 18.75 µg/mL (by protocol).
With `CCOC(=O)c1c(C)oc2nc(C)nc(Nc3cc(C)cc(C)c3)c12`, the survival was inactive: 82%.
As to `Cc1ccc(-n2ncc3c(N4CCCCC4)ncnc32)cc1Cl`, the survival is inactive: 64%.
As to `COc1ccc(-c2cc(OC(=O)c3ccccc3C)c3c(C)oc(C)c3c(=O)c2)cc1`, the survival was inactive: 67%.
As for `CCc1cccc(C)c1NC(=O)c1cc(S(=O)(=O)N(C)Cc2ccccc2)ccc1F`, the figure is inactive: 124%.
Take `O=C1c2cccnc2C(=O)N1c1ccc(-c2nc3cc(Cl)ccc3o2)cc1`: the survival is inactive: 105%.
For `CC1Cc2ccccc2N1C(=O)C1CCN(S(=O)(=O)Cc2ccccc2)CC1` (centres undefined) the value was inactive: 108%.
As for `O=C(CSc1nc2ccccc2n1Cc1ccc(F)cc1)N1CCN(c2ccc(F)cc2)CC1`, the survival is inactive: 69%.
Regarding `CC1CCN(C(c2nnnn2Cc2ccccc2)C(C)C)CC1` (centres undefined), the survival was inactive: 109%.
On to `Cc1csc2nc(COC(=O)c3ccc(F)cc3)cc(=O)n12`, for which the survival was inactive: 81%.
For the molecule `Cc1ccc(C)c(NC(=O)Cn2cnc3c(oc4ccccc43)c2=O)c1`, the survival was inactive: 86%.
As for `Cc1cc(C)cc(-n2nnnc2SCC(=O)Nc2cccc(NC(=O)c3ccco3)c2)c1`, the figure is inactive: 107%; as for `CCc1ccc(C2=CC(c3cccc(C)c3)n3c(nc4ccccc43)N2)cc1` (centres undefined), inactive: 87%.
Take `Cc1cccc(N(CC(=O)NCc2ccccc2)S(C)(=O)=O)c1C`: the survival was inactive: 69%.
For `Cc1ccc2[nH]cc(NC(=O)NCc3ccco3)c(=O)c2c1`, the survival is inactive: 109%.
Regarding `CCc1ccc(-c2nc(CN3CCC(C(=O)NCCc4ccc(C)cc4)CC3)c(C)o2)cc1`, the survival is inactive: 85%.
For `Cc1cc(C)nc(NS(=O)(=O)c2ccc(NC(=S)NC(=O)/C=C/c3ccco3)cc2)n1` the value was inactive: 122%; for `O=C(NCc1ccco1)c1ccccc1`, inactive: 110%; for `O=C(Nc1ccc(OCc2cc(=O)n3ccsc3n2)cc1)c1ccc(F)cc1`, inactive: 92%.
On to `Cc1nnc(N2CCC(C(=O)NCCc3ccccc3)CC2)c2nn(-c3ccccc3)c(C)c12`, for which the survival is inactive: 91%.
Turning to `COc1ccc(CNC(=O)CSCc2nc(-c3ccccc3F)oc2C)cc1`, the survival was inactive: 90%.
As for `COc1ccccc1-c1cc(C(=O)N2CCN(c3ccccc3)CC2)no1`, the figure is active: -10%; as for `Cc1cc(C)c2c(=O)cc(C(=O)Nc3ccc(C)c(Cl)c3)oc2c1`, inactive: 103%.
Turning to `CCOC(=O)Cn1c(C2CC(=O)N(c3ccc(C)cc3)C2)nc2ccccc21` (centres undefined), the survival is inactive: 87%.
As for `COCCn1c(-c2ccccc2)c(C)n2c3c(=O)n(C)c(=O)n(C)c3nc12`, the figure is inactive: 95%.
For `Cc1ccccc1OCCn1cc(C(=O)C2CCCCC2)c2ccccc21` the value was inactive: 124%; for `CCC(=O)N1c2ccccc2CC1C(=O)NCCc1ccc(SC)cc1` (centres undefined), inactive: 97%; for `CSc1ccc(/C=C(\C#N)C(=O)NC2CCCCC2)cc1`, inactive: 95%.
`O=[N+]([O-])c1ccc(C(c2sc3nc(-c4ccco4)nn3c2O)N2CCN(Cc3ccccc3)CC2)cc1` (centres undefined): the survival is inactive: 71%.
For `O=C(Nc1ccc2c(c1)OCO2)c1cc(-c2cccc(Cl)c2)on1` the value was inactive: 85%; for `Cc1ccc(C)c(N2CCN(C(=O)Cn3cnc4sc(C)c(S(=O)(=O)N5CCN(c6ncccn6)CC5)c4c3=O)CC2)c1`, inactive: 82%; for `CCOC(=O)c1noc2ncnc(N(CCC(=O)OC)c3ccccc3)c12`, inactive: 127%.
In the case of `CCOC(=O)c1noc2ncnc(Nc3ccc(C)c(F)c3)c12`, the survival was inactive: 90%.
As for `CN1CCN(CCCNC(=O)Cn2c(-c3cccs3)cc3ccccc32)CC1`, the figure is inactive: 71%; as for `Cc1ccc2c(c1)sc1nc(=O)n(-c3ccc(Cl)cc3)c(=O)n12`, inactive: 77%; as for `COc1ccc(OC)c(C2CC(=O)c3c([nH]c(C(=O)OC4CCC(C)CC4)c3C)C2)c1` (centres undefined), inactive: 84%.
As for `COc1cc(NC(=O)c2cc(-c3ccc4c(c3)OCO4)on2)cc(OC)c1OC`, the figure is inactive: 146%.
For `COc1ccc(-c2cc(C)no2)cc1S(=O)(=O)NCc1ccc(OC(C)C)cc1` the value was inactive: 72%; for `O=C(Cn1cc(SCc2ccc(C(F)(F)F)cc2)c2ccccc21)N1CCCCC1`, inactive: 80%; for `CC(CC(=O)NCc1ccc(Cl)cc1)CC1=NS(=O)(=O)c2ccccc2N1` (centres undefined), inactive: 82%.
`COc1ccc(N2CCN(CCCNC(=O)C3COc4ccc(OC)cc4C3)CC2)cc1` (centres undefined): the survival was inactive: 78%.
For `COc1ccc2c(CNCc3ccc(Cl)cc3)c(C(=O)O)n(Cc3ccccc3C)c2c1` the value was inactive: 90%; for `CCc1cccc2c(-c3ccccc3)nc(SCC(=O)Nc3ccccc3)nc12`, inactive: 88%; for `Cc1cccc(Nc2nnc(-n3nc(C)cc3C)c3ccccc23)c1`, inactive: 129%.
On to `Cc1c(-c2nsc(NC(=O)c3ccc(Cl)cc3)n2)nnn1-c1ccc(C(C)C)cc1`, for which the survival was inactive: 87%.
As for `COc1ccc(NC(=O)c2cnn(-c3ccc(C)cc3)c2-n2cccc2)cc1Cl`, the figure is inactive: 73%; as for `COc1ccc(S(=O)(=O)c2cn(C)c3cc(N4CCCCC4)c(F)cc3c2=O)cc1`, inactive: 71%; as for `CC(=O)c1ccc(N2CCN(c3nc4c(S(=O)(=O)c5ccccc5)nnn4c4ccc(Cl)cc34)CC2)cc1`, inactive: 89%.
Turning to `Cc1cc(Br)ccc1NC(=O)c1cc2c(=O)n(C)c3cc(Cl)ccc3c2s1`, the survival was inactive: 69%.
As for `O=C(NC1CC(=O)N(c2ccccc2)C1)C1CCCCC1` (centres undefined), the figure is inactive: 134%; as for `COc1ccc2[nH]cc(NC(=O)NCCO)c(=O)c2c1`, inactive: 112%; as for `Cc1cc(C)cc(NC(=O)CSc2nccn2-c2ccccc2)c1`, inactive: 135%.
With `Cc1cccc2nc(-c3cccnc3)c(Nc3ccc(C(C)C)cc3)n12`, the survival is inactive: 79%.
For `COc1ccc(NC(=O)C2=C(C)Nc3nc(SCc4ccccc4C)nn3C2c2ccc(Br)cc2)cc1` (centres undefined) the value was inactive: 61%.
In the case of `N#Cc1c(NC(=O)c2ccccc2)oc(-c2ccccc2)c1-c1ccccc1`, the survival was inactive: 108%.
For `COc1cc(N(C(=O)Cn2nnc3ccccc32)C(C(=O)NCC2CCCO2)c2ccc(F)cc2)ccc1-n1cnnn1` (centres undefined) the value was inactive: 103%; for `Cc1cccc(NC(=O)C2CCN(S(=O)(=O)c3cccc4nsnc34)CC2)c1C`, inactive: 87%; for `CCCCOc1c(Cl)cc(C(=O)N(Cc2ccc(C)o2)C2CCS(=O)(=O)C2)cc1Cl` (centres undefined), inactive: 91%.
As for `CCC1=NN(C(=O)c2ccccc2O)C(O)(c2ccccc2)C1` (centres undefined), the figure is inactive: 47%; as for `COc1ccc(S(=O)(=O)N2CCC(c3ccncc3)CC2)cc1Cl`, inactive: 136%; as for `CN(C(=O)c1cc(-c2ccccc2O)on1)c1ccccc1`, inactive: 64%.
For the molecule `CSc1ccc(CCNc2ncnc3onc(C)c23)cc1`, the survival was inactive: 120%.
As for `Cc1cc(C)c2oc(C(=O)N(Cc3ccc(F)cc3)C3CCS(=O)(=O)C3)cc(=O)c2c1` (centres undefined), the figure is inactive: 112%.
As to `CC(=O)N(CCCCN1C(=O)c2ccccc2C1=O)c1ccc(Cl)cc1`, the survival was inactive: 114%.
For `CCOc1ccc(/C=C(\C#N)c2nc(-c3cc4ccccc4oc3=O)cs2)c(OCC)c1`, the survival is inactive: 85%.
As for `CCN1CCN(C(c2ccc(OC)cc2)c2c(O)cc(C)n(CCOC)c2=O)CC1` (centres undefined), the figure is inactive: 82%.
On to `CCOC(=O)c1c(C)oc2ccc(N(C(=O)Oc3ccccc3)S(=O)(=O)c3ccccc3)cc12`, for which the survival was inactive: 98%.
As for `COc1ccccc1NC(=O)c1c(NCc2sccc2C)sc2c1CCCCC2`, the figure is inactive: 58%.
As to `CN(C(=O)Cn1c(=O)n(CCCS(=O)(=O)C2CCCCC2)c(=O)c2ccccc21)c1ccccc1`, the survival is inactive: 69%.
On to `CCOc1ccccc1-c1cc(C(=O)N/N=C(\C)c2ccco2)[nH]n1`, for which the survival is inactive: 121%.
For `COc1ccc(C(CNC(=O)COc2ccc(C)cc2)N2CCCCC2)cc1` (centres undefined) the value was inactive: 105%; for `O=C(Cn1c(=O)oc2ccccc21)NCc1cccc(Cl)c1`, inactive: 78%; for `COc1ccc2c(CNCc3ccc(C)o3)c(C(=O)O)n(Cc3ccccc3)c2c1`, inactive: 85%.
As for `COc1ccc(Cl)cc1NC(=O)Cn1c2ncccc2c(=O)n1-c1ccc(C)c(C)c1`, the figure is inactive: 94%; as for `Cc1cc(C)cc(N(CC(=O)Nc2cccc(C)c2C)S(=O)(=O)c2c(C)[nH]c(=O)[nH]c2=O)c1`, inactive: 82%.
Regarding `Cc1cccc(CCNC(=O)c2cc3ccccn3n2)c1`, the survival is inactive: 68%.
As for `COc1ccc(C2C=C(c3ccccc3)Nc3nc(NC(=O)c4ccc(C)cc4)nn32)cc1` (centres undefined), the figure is inactive: 61%; as for `CCOc1cc(-c2nc(-c3ccc(-c4ccc(C)cc4)nc3OC)no2)cc(OCC)c1OCC`, inactive: 56%.
With `CCOC(=O)c1ccc(NC(=O)c2cc3cc(C)ccc3n2C)cc1`, the survival is inactive: 89%.
With `Cc1ccc(-n2nc3c(=O)n(CC(=O)Nc4ccccc4F)nc(C)c3c2C)c(C)c1`, the survival is inactive: 86%.
In the case of `COC(=O)c1ccc(Cl)cc1NC(=O)N1CC(C)Oc2ccccc21` (centres undefined), the survival is inactive: 103%.
As for `Cc1ccc2cc(CN(CCO)C(=O)NCc3ccccc3)c(=O)[nH]c2c1`, the figure is inactive: 110%; as for `Cc1cc(NS(=O)(=O)c2ccc(NC(=O)COc3ccc(Cl)cc3)cc2)nc(C)n1`, inactive: 73%; as for `Cc1ccc(NC(=O)Nc2nnc(N(C)Cc3ccccc3)s2)cc1`, inactive: 101%.
`Cc1cccc(N2CCN(S(=O)(=O)c3ccc4c(c3)CCCN4C(=O)C3CCC3)CC2)c1C`: the survival is inactive: 86%.
`COc1ccccc1N1CCN(C(=O)Cn2ncc3c(=O)oc4ccccc4c32)CC1`: the survival is inactive: 72%.
As for `CCN(CC)c1ccc(NC(=O)C(Cc2ccccc2)NS(=O)(=O)c2ccc(Br)s2)c(C)c1` (centres undefined), the figure is inactive: 127%; as for `CC(=O)Nc1cccc(NC(=O)Cn2cnc3c2c(=O)n(C)c(=O)n3C)c1`, inactive: 75%; as for `O=C(Nc1cccc(Cl)c1)c1c(NC(=O)C(F)(F)F)sc2c1CCCC2`, active: -2%.
Consider `O=C(Nc1ccc(C(=O)OCc2cc(=O)n3nc(C4CC4)sc3n2)cc1)c1ccc(F)cc1`, for which the survival was inactive: 69%.

Source of the values: PubChem BioAssay AID463173 (ICCB-Longwood Screening Facility, Harvard Medical School, 2010).
